# Reference: the supplement of paper PMC11417369
# ± gives the standard deviation of the averaged measurements. The list shows a part of the results.
# Tested on: PfAP2-G AP2 domain (GST-tagged)
# Assay: gcPBM binding intensity (ln(normalized median fluorescence intensity)); higher = stronger DNA binding
# How it was run: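 The highest Masliner-normalised natural-log median intensity across replicate spots of either probe orientation is reported as binding intensity. GST-tagged P. falciparum DNA-binding domains expressed in E. coli were applied for 1 h to an Agilent 4 × 180k array of primer-extended double-stranded 36-bp intergenic genomic probes plus negative controls, and bound protein was detected with Alexa488 anti-GST antibody and scanned at 488 nm.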
row,Sequence,gcPBM binding intensity (ln)
1,TTTTTTTTTTTTGTCACACATATGGAATATATCTAT [CACACA_site5899],9.98 ± 0.35
2,AAAAAAAAAAAAAAAGGTACACAAAACGGTATTATT [XGTACX_site7064],11.3 ± 0.68
3,AACTCATAGGAGTGTGCACACAAAAAATTAAAAAAA [CACACA_site8996],10.7 ± 0.47
4,CTCAAAAAATATGAACGTACAAAATAAGTAATGACA [XGTACX_site590],11.1 ± 0.45
5,TTTTTTTTTTTTTTTGCACACATTTTAATTATTTTT [CACACA_site341],9.88 ± 0.38
6,TTGTATCATATATTATGTACATATTGATTTATTACC [XGTACX_site12],11.2 ± 0.55
7,CAAAGTATTATGATTACACACATGTGCTTTTTTCTT [CACACA_site163],9.85 ± 0.15
8,AATAATAAATAAATGTGTACTTAAAAATATTATATT [XGTACX_site3005],11.5 ± 0.87
9,TTATTGTTATTTGTTTGTACATAATATAATATATTA [XGTACX_site6477],11 ± 0.71
10,TCCTATGATGATGATAGTACATATGAGTTCAAAAAA [XGTACX_site273],10.9 ± 0.54
11,ACAATTAATCAAACAAGTACAAAATATATCCCTATT [XGTACX_site6223],11 ± 0.65
12,AACCATACACAAATAAACATAGACACAGATACCTCC [CACACA_negctrl_site598],10
13,AATATAAAAAAAAACAAAAAAAAAATTTTGGTTCAC [CACACA_negctrl_site1290],9.53 ± 0.18
14,ATGTCCTATATTAGTACACACATGAAAATATAAATA [CACACA_site7497],11.6 ± 1.1
15,AAAATTTTGGAACGTGCACACATATGTAATATATAT [CACACA_site9004],10.5 ± 0.24
16,AATATGTGTATAGATAGTACACATGCTGATAATATA [XGTACX_site5941],11.2 ± 0.76
17,AGTAGTCTGGAGAAATGTACACAGTATCTGGTAGCT [XGTACX_site4871],11.2 ± 0.69
18,TTTTTAAAATATTTAACACACAATTATAATGCATAA [CACACA_site3932],10.1 ± 0.18
19,ATTATACAAATTGAGGTGCATGAAACAAAATATGAA,10.2 ± 0.18
20,ATATTTTTTTTTTTATGTACTTATTTATAATTATTT [XGTACX_site5279],11.6 ± 0.95
21,AGCTTGTAACAGTTTACACACTAATATTTATAAATT [CACACA_site6024],10.11 ± 0.028
22,CTTATAAGAATACTAGTGCACATAATTTAACGAAAA,10.4 ± 0.18
23,TATTAATGATAAAAAAGTACATTATTATATGATATT [XGTACX_site4235],11.3 ± 0.95

row,Sequence,gcPBM binding intensity (ln)
1,TACTTATTGTGATACTTATATTATTTTATGATTAAA [XGTACX_negctrl_site353],10.2 ± 0.035
2,TATATTTATTTATATACACACATAATAAAAAATATA [CACACA_site6527],10.1 ± 0.38
3,ATCATTTGCATACGCACACACACATAAAAAGAAAAA [CACACA_site355],10.4 ± 0.45
4,TCTATCAAATTTGAAGGTACACATTTGAGATAATTA [XGTACX_site3797],11 ± 0.73
5,TTTTTTTTTTTTTTTTCACACATTGTACTTTTTTAT [CACACA_site5193],11.6 ± 1.2
6,TAAGTCATATAAATGTGTACATAAAAAAAAAAAATG [XGTACX_site1645],11.6 ± 1
7,CATCTAAATTGTAGTTGTACACCTTAATCTTATTAC [XGTACX_site7547],11.7 ± 0.83
8,TATTTTATCATTTGCACACGCACACCGACATAAAAA [CACACA_site4348],10.6 ± 0.43
9,CATACAATAAATATGGTGCATTTTATGTAACCGTTT [GTGCAC_site9420],10.13 ± 0.092
10,TGAACATATTAAAATTGTACATATGCACAATATGTA [XGTACX_site6801],10.8 ± 0.52
11,AAGGATATAACATACACACACACACGGATATAAATA [CACACA_site7867],10.1 ± 0.11
12,ACTCTCTTATATTAAACACACATATTTATAGGTATA [CACACA_site7302],10.2 ± 0.26
13,ATTTTAGAATAAATTTTTTACATTAAAAAACTATTT [CACACA_negctrl_site1414],9.71 ± 0.12
14,GTATCAAAAGAATACACACACACATACATATATATA [CACACA_site3796],10.2 ± 0.22
15,TTTTAATTAAAACACACACACACATATATATATATA [CACACA_site2291],10.5 ± 0.73
16,TATTTCATCATATTGTGTACTTAATTTATATAATTA [XGTACX_site5753],11.5 ± 0.92
17,TGAAAAATAAATAAATGTACATATATATATATATAC [XGTACX_site7310],10.9 ± 0.49
18,AGAAATACAAAATAAATATAAGAAACAAAATATTTA [CACACA_negctrl_site780],9.63 ± 0.028
19,AAAAGGTTATCAATATGTACATATTTTTTTATTTTT [XGTACX_site3277],11.1 ± 0.61
20,ATAAAAATATGATCAACACACGATTAAATATTCATA [CACACA_site1495],9.97 ± 0.19
21,AGATGTTTTTATATATGTACTTAAATACACAAATAT [XGTACX_site8250],11.4 ± 0.86
22,AAAAAAAAAAAAAACACACACACAAAATAAACAAAC [CACACA_site2720],10.19 ± 0.078
